Columns and labels:
[1] = tested on: MDA-MB-468 (breast cancer); experiment: In vitro cytotoxicity (MTS), MDA-MB-468; format: cell-based, human; details: Table 14; LP = lacked potency
Protocol: The effects of anti-Notch3 ADCs were assessed on 1) cell lines endogenously expressing Notch3 protein: HCC2429 (lung cancer), OVCAR3 (ovarian cancer) and MDA-MB-468 (breast cancer), 2) cell lines engineered to over-express full length human Notch3 protein: MDA-MB-468/hNotch3 and U2OS/hNotch3, and 3) a negative control cell line (SW900) using an MTS cellular viability indicator (Promega, Madison, Wis.). These cell lines were cultured with increasing concentrations of anti-Notch3 ADCs comprising rat-human chimeric anti-Notch3 antibodies, ch28 and ch75, and humanized anti-Notch3 antibodies, hu28 and hu75, conjugated to various linker-payload combinations of the present invention. As a specificity control for the anti-Notch3-ADCs, non-targeted control-ADCs (huNeg8.8-ADCs or ch2H6-ADCs) were also tested on the same cell lines. After four days, viability of each culture was assessed. IC50 values were calculated by logistic non-linear regression, model #203 with XL fit v4.2 (IDBS, Guildford, Surry, UK) and presented as ng Ab/mL. The drug antibody ratio (DAR) is also provided.

[2] = tested on: OVCAR3 ovarian xenografts; experiment: OVCAR3 ovarian xenograft model

B1: hu28-vc0101: hu28 conjugated to vc0101 linker-payload (conjugate)
heavy: EVQLVESGGGLVQPGGSLRLSCAASGFTFRDYGMTWVRQAPGKGLEWVAYISSGSNYIYYAEAVKGRFTISRDNAKNSLYLQMNSLRAEDTAVYYCARRGPFVLDAWGQGTLVTVSS[letters of human IgG1 constant region omitted]
light: DIQMTQSPSSLSASVGDRVTITCKASQSINRYLHWYQQKPGKAPKLLIYNANGLQTGVPSRFSGSGSGTDFTLTISSLQPEDFATYYCLQHNTWPDTFGGGTKVEIKRTVAAPSVFIFPPSDEQLKSGTASVVCLLNNFYPREAKVQWKVDNALQSGNSQESVTEQDSKDSTYSLSSTLTLSKADYEKHKVYACEVTHQGLSSPVTKSFNRGEC
IC50 (ng Ab/mL), MDA-MB-468 [1]: 6545 ng Ab/mL | tumor volume ([2]; DAY 0, dose 0.3 mg/kg intravenously Q4d×4): 168 mm3 | tumor volume ([2]; DAY 0, dose 1 mg/kg intravenously Q4d×4): 169 mm3 | tumor volume ([2]; DAY 0, dose 3 mg/kg intravenously Q4d×4): 169 mm3 | tumor volume ([2]; DAY 2, dose 1 mg/kg, intravenously Q4d×4): 249 mm3 | tumor volume ([2]; DAY 2, dose 3 mg/kg, intravenously Q4d×4): 246 mm3 | tumor volume ([2]; DAY 3, dose 0.3 mg/kg intravenously Q4d×4): 291 mm3 | tumor volume ([2]; DAY 3, dose 1 mg/kg intravenously Q4d×4): 255 mm3 | tumor volume ([2]; DAY 3, dose 3 mg/kg intravenously Q4d×4): 253 mm3 | tumor volume ([2]; DAY 6, dose 0.3 mg/kg intravenously Q4d×4): 302 mm3 | tumor volume ([2]; DAY 6, dose 1 mg/kg intravenously Q4d×4): 226 mm3 | tumor volume ([2]; DAY 6, dose 1 mg/kg, intravenously Q4d×4): 257 mm3 | tumor volume ([2]; DAY 6, dose 3 mg/kg intravenously Q4d×4): 180 mm3 | tumor volume ([2]; DAY 6, dose 3 mg/kg, intravenously Q4d×4): 219 mm3 | tumor volume ([2]; DAY 9, dose 1 mg/kg, intravenously Q4d×4): 282 mm3 | tumor volume ([2]; DAY 9, dose 3 mg/kg, intravenously Q4d×4): 192 mm3 | tumor volume ([2]; DAY 11, dose 0.3 mg/kg intravenously Q4d×4): 394 mm3 | tumor volume ([2]; DAY 11, dose 1 mg/kg intravenously Q4d×4): 216 mm3 | tumor volume ([2]; DAY 11, dose 3 mg/kg intravenously Q4d×4): 113 mm3 | tumor volume ([2]; DAY 12, dose 1 mg/kg, intravenously Q4d×4): 257 mm3 | tumor volume ([2]; DAY 12, dose 3 mg/kg, intravenously Q4d×4): 133 mm3 | tumor volume ([2]; DAY 14, dose 0.3 mg/kg intravenously Q4d×4): 510 mm3 | tumor volume ([2]; DAY 14, dose 1 mg/kg intravenously Q4d×4): 242 mm3 | tumor volume ([2]; DAY 14, dose 3 mg/kg intravenously Q4d×4): 104 mm3 | tumor volume ([2]; DAY 15, dose 1 mg/kg, intravenously Q4d×4): 263 mm3 | tumor volume ([2]; DAY 15, dose 3 mg/kg, intravenously Q4d×4): 99 mm3 | tumor volume ([2]; DAY 18, dose 0.3 mg/kg intravenously Q4d×4): 601 mm3 | tumor volume ([2]; DAY 18, dose 1 mg/kg intravenously Q4d×4): 212 mm3 | tumor volume ([2]; DAY 18, dose 3 mg/kg intravenously Q4d×4): 72 mm3 | tumor volume ([2]; DAY 19, dose 1 mg/kg, intravenously Q4d×4): 236 mm3 | tumor volume ([2]; DAY 19, dose 3 mg/kg, intravenously Q4d×4): 73 mm3 | tumor volume ([2]; DAY 21, dose 0.3 mg/kg intravenously Q4d×4): 685 mm3 | tumor volume ([2]; DAY 21, dose 1 mg/kg intravenously Q4d×4): 190 mm3 | tumor volume ([2]; DAY 21, dose 3 mg/kg intravenously Q4d×4): 57 mm3 | tumor volume ([2]; DAY 22, dose 1 mg/kg, intravenously Q4d×4): 251 mm3 | tumor volume ([2]; DAY 22, dose 3 mg/kg, intravenously Q4d×4): 63 mm3 | tumor volume ([2]; DAY 25, dose 0.3 mg/kg intravenously Q4d×4): 767 mm3 | tumor volume ([2]; DAY 25, dose 1 mg/kg intravenously Q4d×4): 216 mm3 | tumor volume ([2]; DAY 25, dose 3 mg/kg intravenously Q4d×4): 49 mm3 | tumor volume ([2]; DAY 26, dose 1 mg/kg, intravenously Q4d×4): 303 mm3 | tumor volume ([2]; DAY 26, dose 3 mg/kg, intravenously Q4d×4): 63 mm3 | tumor volume ([2]; DAY 28, dose 0.3 mg/kg intravenously Q4d×4): 841 mm3 | tumor volume ([2]; DAY 28, dose 1 mg/kg intravenously Q4d×4): 282 mm3 | tumor volume ([2]; DAY 28, dose 3 mg/kg intravenously Q4d×4): 47 mm3 | tumor volume ([2]; DAY 29, dose 1 mg/kg, intravenously Q4d×4): 396 mm3 | tumor volume ([2]; DAY 29, dose 3 mg/kg, intravenously Q4d×4): 56 mm3 | tumor volume ([2]; DAY 31, dose 0.3 mg/kg intravenously Q4d×4): 926 mm3 | tumor volume ([2]; DAY 31, dose 1 mg/kg intravenously Q4d×4): 292 mm3 | tumor volume ([2]; DAY 31, dose 3 mg/kg intravenously Q4d×4): 48 mm3 | tumor volume ([2]; DAY 33, dose 1 mg/kg, intravenously Q4d×4): 555 mm3 | tumor volume ([2]; DAY 33, dose 3 mg/kg, intravenously Q4d×4): 58 mm3 | tumor volume ([2]; DAY 34, dose 0.3 mg/kg intravenously Q4d×4): 1038 mm3 | tumor volume ([2]; DAY 34, dose 1 mg/kg intravenously Q4d×4): 350 mm3 | tumor volume ([2]; DAY 34, dose 3 mg/kg intravenously Q4d×4): 48 mm3 | tumor volume ([2]; DAY 36, dose 1 mg/kg, intravenously Q4d×4): 683 mm3 | tumor volume ([2]; DAY 36, dose 3 mg/kg, intravenously Q4d×4): 56 mm3 | tumor volume ([2]; DAY 38, dose 0.3 mg/kg intravenously Q4d×4): 1191 mm3 | tumor volume ([2]; DAY 38, dose 1 mg/kg intravenously Q4d×4): 497 mm3 | tumor volume ([2]; DAY 38, dose 3 mg/kg intravenously Q4d×4): 49 mm3 | tumor volume ([2]; DAY 40, dose 1 mg/kg, intravenously Q4d×4): 811 mm3 | tumor volume ([2]; DAY 40, dose 3 mg/kg, intravenously Q4d×4): 58 mm3 | tumor volume ([2]; DAY 41, dose 0.3 mg/kg intravenously Q4d×4): 1254 mm3 | tumor volume ([2]; DAY 41, dose 1 mg/kg intravenously Q4d×4): 559 mm3 | tumor volume ([2]; DAY 41, dose 3 mg/kg intravenously Q4d×4): 40 mm3 | tumor volume ([2]; DAY 42, dose 1 mg/kg, intravenously Q4d×4): 850 mm3 | tumor volume ([2]; DAY 42, dose 3 mg/kg, intravenously Q4d×4): 55 mm3 | tumor volume ([2]; DAY 45, dose 0.3 mg/kg intravenously Q4d×4): 1486 mm3 | tumor volume ([2]; DAY 45, dose 1 mg/kg intravenously Q4d×4): 750 mm3 | tumor volume ([2]; DAY 45, dose 3 mg/kg intravenously Q4d×4): 39 mm3 | tumor volume ([2]; DAY 47, dose 1 mg/kg, intravenously Q4d×4): 1121 mm3 | tumor volume ([2]; DAY 47, dose 3 mg/kg, intravenously Q4d×4): 76 mm3 | tumor volume ([2]; DAY 49, dose 0.3 mg/kg intravenously Q4d×4): 1479 mm3 | tumor volume ([2]; DAY 49, dose 1 mg/kg intravenously Q4d×4): 781 mm3 | tumor volume ([2]; DAY 49, dose 3 mg/kg intravenously Q4d×4): 33 mm3 | tumor volume ([2]; DAY 50, dose 1 mg/kg, intravenously Q4d×4): 1107 mm3 | tumor volume ([2]; DAY 50, dose 3 mg/kg, intravenously Q4d×4): 74 mm3 | tumor volume ([2]; DAY 53, dose 1 mg/kg intravenously Q4d×4): 934 mm3 | tumor volume ([2]; DAY 53, dose 3 mg/kg intravenously Q4d×4): 34 mm3 | tumor volume ([2]; DAY 56, dose 1 mg/kg intravenously Q4d×4): 991 mm3 | tumor volume ([2]; DAY 56, dose 3 mg/kg intravenously Q4d×4): 30 mm3 | tumor volume ([2]; DAY 59, dose 1 mg/kg intravenously Q4d×4): 1149 mm3 | tumor volume ([2]; DAY 59, dose 3 mg/kg intravenously Q4d×4): 33 mm3 | tumor volume ([2]; DAY 63, dose 1 mg/kg intravenously Q4d×4): 1421 mm3 | tumor volume ([2]; DAY 63, dose 3 mg/kg intravenously Q4d×4): 35 mm3 | tumor volume ([2]; DAY 67, dose 3 mg/kg intravenously Q4d×4): 32 mm3 | tumor volume ([2]; DAY 70, dose 3 mg/kg intravenously Q4d×4): 33 mm3 | tumor volume ([2]; DAY 74, dose 3 mg/kg intravenously Q4d×4): 41 mm3 | tumor volume ([2]; DAY 77, dose 3 mg/kg intravenously Q4d×4): 50 mm3 | tumor volume ([2]; DAY 80, dose 3 mg/kg intravenously Q4d×4): 56 mm3 | tumor volume ([2]; DAY 83, dose 3 mg/kg intravenously Q4d×4): 63 mm3 | tumor volume ([2]; DAY 87, dose 3 mg/kg intravenously Q4d×4): 87 mm3 | tumor volume ([2]; DAY 90, dose 3 mg/kg intravenously Q4d×4): 84 mm3 | tumor volume ([2]; DAY 94, dose 3 mg/kg intravenously Q4d×4): 137 mm3 | tumor volume ([2]; DAY 97, dose 3 mg/kg intravenously Q4d×4): 129 mm3 | tumor volume ([2]; DAY 102, dose 3 mg/kg intravenously Q4d×4): 153 mm3 | tumor volume ([2]; DAY 105, dose 3 mg/kg intravenously Q4d×4): 176 mm3 | tumor volume ([2]; DAY 108, dose 3 mg/kg intravenously Q4d×4): 232 mm3 | tumor volume ([2]; DAY 111, dose 3 mg/kg intravenously Q4d×4): 271 mm3 | tumor volume ([2]; DAY 115, dose 3 mg/kg intravenously Q4d×4): 323 mm3 | tumor volume ([2]; DAY 118, dose 3 mg/kg intravenously Q4d×4): 318 mm3 | tumor volume ([2]; DAY 122, dose 3 mg/kg intravenously Q4d×4): 399 mm3

Reference: US9433687B2, “Anti-Notch3 antibodies and antibody-drug conjugates” (Pfizer Inc., priority 2012, dated 2016)
